The campaign covered roughly 360,000 compounds. About 16,000 (4.4%) were called active. Inconclusive results, whose numbers are uncertain, are shown with a selection of clear calls. Calls come from the whole dose curve; as a rule, active = well fitted inhibition curve with a large enough effect; inconclusive = small, poorly fitted or top-dose-only effect; inactive = no such curve, though single readings can be large or run the other way. Potencies of inconclusive entries are doubtful fits and often do not repeat.
target: Bromodomain adjacent to zinc finger domain protein 2B (Homo sapiens) (UniProt Q9UIF8); assay: qHTS Assay for Inhibitors of BAZ2B; conditions: AlphaScreen BAZ2B-H3K14Ac peptide displacement; activity change, negative = inhibition: at 114 µM (top of the series) unless noted; note: nearly all actives have a fitted effect of over 60% in size
Summary of the method: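 Compounds, titrated to a top concentration of 110 uM, were incubated 30 min at room temperature with preformed BAZ2B/acetyl-K14 H3 peptide complex (50 nM each). Proximity signal was measured by AlphaScreen after 20 min with beads.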
% is set by controls: 0 for no effect and ±100 for the full control effect; potency is the fitted concentration of half-maximal effect; tags give direction and shape of the fitted curve.

UniProt Q9UIF8, sequence (Q9UIF8 whole entry, looked up, the tested form may be a part): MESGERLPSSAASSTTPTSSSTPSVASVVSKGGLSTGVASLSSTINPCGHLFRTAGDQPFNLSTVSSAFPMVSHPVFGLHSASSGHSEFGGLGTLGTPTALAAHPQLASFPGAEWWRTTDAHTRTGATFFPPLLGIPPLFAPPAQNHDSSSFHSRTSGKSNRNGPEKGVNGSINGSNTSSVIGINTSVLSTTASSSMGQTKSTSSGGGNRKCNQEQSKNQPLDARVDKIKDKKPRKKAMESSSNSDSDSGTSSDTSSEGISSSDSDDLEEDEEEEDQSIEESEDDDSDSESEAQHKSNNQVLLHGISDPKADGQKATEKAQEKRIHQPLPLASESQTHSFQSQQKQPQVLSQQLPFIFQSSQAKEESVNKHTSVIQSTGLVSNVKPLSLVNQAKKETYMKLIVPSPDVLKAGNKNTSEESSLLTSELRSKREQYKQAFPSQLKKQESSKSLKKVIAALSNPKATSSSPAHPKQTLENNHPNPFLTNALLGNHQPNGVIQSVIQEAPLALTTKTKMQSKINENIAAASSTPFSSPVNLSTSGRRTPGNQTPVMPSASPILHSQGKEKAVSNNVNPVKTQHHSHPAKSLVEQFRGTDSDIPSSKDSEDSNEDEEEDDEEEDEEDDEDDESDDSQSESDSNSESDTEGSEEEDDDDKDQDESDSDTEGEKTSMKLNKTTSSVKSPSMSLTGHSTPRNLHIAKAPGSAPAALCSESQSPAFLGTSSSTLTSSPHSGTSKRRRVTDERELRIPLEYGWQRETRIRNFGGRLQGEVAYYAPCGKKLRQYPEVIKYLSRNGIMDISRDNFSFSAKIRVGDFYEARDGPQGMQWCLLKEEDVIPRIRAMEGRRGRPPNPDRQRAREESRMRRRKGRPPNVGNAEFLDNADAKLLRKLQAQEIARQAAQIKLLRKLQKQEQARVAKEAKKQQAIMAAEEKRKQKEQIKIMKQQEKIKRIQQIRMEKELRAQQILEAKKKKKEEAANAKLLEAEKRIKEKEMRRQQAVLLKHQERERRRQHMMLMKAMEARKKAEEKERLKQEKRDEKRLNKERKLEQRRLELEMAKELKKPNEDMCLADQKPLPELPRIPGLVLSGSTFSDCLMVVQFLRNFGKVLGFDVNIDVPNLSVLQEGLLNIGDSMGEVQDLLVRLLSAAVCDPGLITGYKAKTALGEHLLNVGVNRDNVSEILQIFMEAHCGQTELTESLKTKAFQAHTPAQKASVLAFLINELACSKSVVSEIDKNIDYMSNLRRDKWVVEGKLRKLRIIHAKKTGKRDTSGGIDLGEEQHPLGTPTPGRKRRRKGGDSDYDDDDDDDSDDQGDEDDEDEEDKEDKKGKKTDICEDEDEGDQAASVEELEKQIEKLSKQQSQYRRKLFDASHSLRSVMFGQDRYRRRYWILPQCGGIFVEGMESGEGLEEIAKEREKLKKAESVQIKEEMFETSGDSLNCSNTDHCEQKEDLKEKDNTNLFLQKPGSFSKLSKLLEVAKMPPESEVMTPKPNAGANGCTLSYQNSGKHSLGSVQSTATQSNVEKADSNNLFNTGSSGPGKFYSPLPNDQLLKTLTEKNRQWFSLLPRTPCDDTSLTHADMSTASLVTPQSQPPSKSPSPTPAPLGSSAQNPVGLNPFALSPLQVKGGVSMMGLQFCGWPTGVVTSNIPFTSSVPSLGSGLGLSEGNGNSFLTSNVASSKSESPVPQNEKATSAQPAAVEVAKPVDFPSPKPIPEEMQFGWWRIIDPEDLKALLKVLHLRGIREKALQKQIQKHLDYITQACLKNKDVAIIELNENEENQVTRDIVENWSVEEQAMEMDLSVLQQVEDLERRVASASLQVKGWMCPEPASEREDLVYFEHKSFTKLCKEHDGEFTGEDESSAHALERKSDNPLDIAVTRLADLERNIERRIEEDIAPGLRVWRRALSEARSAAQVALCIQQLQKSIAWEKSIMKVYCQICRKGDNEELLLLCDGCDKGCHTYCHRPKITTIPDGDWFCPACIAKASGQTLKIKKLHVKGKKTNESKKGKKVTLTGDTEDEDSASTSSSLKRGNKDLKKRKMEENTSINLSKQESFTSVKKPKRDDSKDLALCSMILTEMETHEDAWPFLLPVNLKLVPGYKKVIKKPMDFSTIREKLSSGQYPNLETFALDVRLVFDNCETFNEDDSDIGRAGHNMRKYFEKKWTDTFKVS

Row | SMILES | Potency | activity change, negative = inhibition
1 | COc1ccc(-c2nn[nH]n2)cc1OC | inconclusive: 89.1 µM [inhibitor, single point] | 
2 | O=C1CN(C(=O)COC(=O)c2ccc(N3CCCCCC3)c([N+](=O)[O-])c2)c2ccccc2N1 | inconclusive: 39.8 µM [inhibitor, full curve, poor fit] | 
3 | CCC(C)NC(=O)C1CC(=O)N(CCc2ccc(F)cc2)C1 (stereo not given) | inconclusive: 89.1 µM [inhibitor, single point] | 
4 | O=c1[nH]c(C2CCN(S(=O)(=O)c3ccc([N+](=O)[O-])cc3)CC2)nc2c1nnn2Cc1ccccc1 | inconclusive: 70.8 µM [inhibitor, single point] | 
5 | CCCN(C(=O)c1sc2nc3n(c(=O)c2c1C)CCCC3)c1ccccc1C | inconclusive: 89.1 µM [inhibitor, single point] | 
6 | CCN(C(=O)CSc1ncccn1)C1CCS(=O)(=O)C1 (stereo not given) |  | inactive: -4.11%
7 | CCN=c1scc(-c2ccccc2)n1/N=C/c1ccccn1 | active: 14.1 µM | 
8 | Cc1ccc2c(c1)CC(C)N2S(=O)(=O)c1nnc(NC(=O)C(C)C)s1 (stereo not given) |  | inactive: -13.5%
9 | CCc1nnc(N/N=C/c2ccccc2F)n1N | inconclusive: 79.4 µM [inhibitor, partial curve] | 
10 | O=S(=O)(c1ccc(-c2ccccn2)s1)N1CCC2(CC1)OCCO2 |  | inactive: -0.138%
11 | COc1ccc(Cn2ccc3nc(C)c(C(=O)N4CCN(c5cc(C)ccc5C)CC4)cc3c2=O)cc1 | inconclusive: 50.1 µM [inhibitor, partial curve] | 
12 | COc1ccc(S(=O)(=O)c2ccc(O)cc2)cc1 |  | inactive: 0.635%
13 | O=C(Cn1c(C(=O)OCCO)cc2ccccc21)c1ccccc1 |  | inactive: 6.21%
14 | COc1cc(-n2c(=O)c3ccccc3n(Cc3ccccc3)c2=O)cc(OC)c1OC | inconclusive: 89.1 µM [inhibitor, single point] | 
15 | CC(=O)c1c(C)[nH]c(C(=O)N2CCN(S(=O)(=O)c3ccc(C)cc3C)CC2)c1C | inconclusive: 89.1 µM [inhibitor, single point] | 
16 | CNC(=S)N1N=C(c2ccccc2)CC1c1ccc(OC)c(OC)c1 (stereo not given) |  | inactive: -10.4%
17 | CCN1C=C(Cc2ccc(F)cc2)C2=C(C1)C(c1ccc(F)cc1)C(C#N)=C(N)O2 (stereo not given) | inconclusive: 44.7 µM [inhibitor, partial curve] | 
18 | CO/N=C/c1ccc(Sc2ccc(C)cc2)c([N+](=O)[O-])c1 | inconclusive: 89.1 µM [inhibitor, single point] | 
19 | CCCc1cc(C(=O)OCC(=O)N2CCN(c3ccc(OC)cc3)CC2)sc1C | inconclusive: 25.1 µM [inhibitor, full curve] | 
20 | Cn1nc(C(F)(F)F)c(C#N)c1N1CCN(c2ccccc2)CC1 | inconclusive: 31.6 µM [inhibitor, single point] | 
21 | Cc1oc(-c2cc3c(cc2Cl)OCO3)nc1CN1CCCC1c1ccc(F)cc1 (stereo not given) | inconclusive: 79.4 µM [inhibitor, partial curve] | 
22 | Cc1cc(S(=O)(=O)NCC(c2ccc(N(C)C)cc2)N2CCOCC2)ccc1F (stereo not given) | inconclusive: 50.1 µM [inhibitor, partial curve] | 
23 | O=C(C[n+]1ccccc1)N/N=C/c1cc(Br)ccc1F | active: 70.8 µM | 
24 | CC(=O)N1c2ccc(Cl)cc2C2C=CCC2C1c1cccc2ccccc12 (stereo not given) |  | inactive: -32.7%

Row | SMILES | Potency | activity change, negative = inhibition
25 | COc1ccc(-c2noc(CN3CCCCC3c3nccn3C)n2)cc1 (stereo not given) | inconclusive: 79.4 µM [inhibitor, single point] | 
26 | Cc1cc(OCC(=O)NC(C)c2ccccc2)ccc1[N+](=O)[O-] (stereo not given) |  | inactive: -1.79%
27 | COCCn1c(SCC(=O)NCc2ccco2)nc2cccnc21 | inconclusive: 50.1 µM [inhibitor, partial curve] | 
28 | COc1ccc(C)cc1-n1nnnc1SCC(=O)c1cc(C)n(Cc2ccco2)c1C | inconclusive: 44.7 µM [inhibitor, partial curve] | 
29 | CC1=NOC(=O)/C1=C\c1ccc(-c2cc(Cl)ccc2Cl)o1 | inconclusive: 7.94 µM [inhibitor, full curve, poor fit] | 
30 | COc1ccc(-c2csc(N(CCCN(C)C)C(=O)c3ccccc3C)n2)cc1 |  | inconclusive: -41.8% [inhibitor] [at 0.457 µM]
31 | CCN(CC)c1cc(C)c2cc(NC(=O)c3ccc(Br)o3)ccc2n1 | inconclusive: 39.8 µM [inhibitor, single point] | 
32 | Cc1ccc(C)c(Nc2nc3nonc3nc2Nc2cccc(C)c2C)c1 | inconclusive: 22.4 µM [inhibitor, full curve] | 
33 | CC(C)(C)c1ccccc1OCCCCCNCCO | inconclusive: 89.1 µM [inhibitor, single point] | 
34 | COCCN(CCOC)Cc1c(O)ccc2c1O/C(=C\c1ccco1)C2=O | active: 70.8 µM | 
35 | COc1ccccc1C1/C(=C(\O)c2ccc3c(c2)OCCO3)C(=O)C(=O)N1Cc1cccnc1 (stereo not given) | inconclusive: 79.4 µM [inhibitor, single point] | 
36 | O=C(CCc1ccc(Oc2cc([N+](=O)[O-])cc([N+](=O)[O-])c2)cc1)Nc1cccc(Cl)c1 | inconclusive: 44.7 µM [inhibitor, partial curve] | 
37 | COc1ccccc1N1C(=O)CC(N2CCN(c3ccc(Cl)cc3)CC2)C1=O (stereo not given) |  | inactive: -26.7%
38 | c1c2c(cc3sc(N4CCCCC4)nc13)OCO2 | inconclusive: 79.4 µM [inhibitor, partial curve] | 
39 | CN(C)c1ccc(NC(=O)CSCc2nc3c(nnn3Cc3ccc(F)cc3)c(=O)[nH]2)cc1 | inconclusive: 44.7 µM [inhibitor, partial curve] | 
40 | CCC(=O)N1CCN(c2ccc(NC(=S)NC(=O)c3cc4ccccc4o3)cc2)CC1 |  | inactive: -4.78%
41 | CNCCCOc1ccc2c(c1)CCC2 | active: 50.1 µM | 
42 | CCc1cccc(NC(=O)CNC(=O)N2CC(=O)Nc3ccccc32)c1 |  | inactive: -15%
43 | COc1ccc(OC)c(C(=O)CSc2nnc(-c3cccnc3)n2C)c1 |  | inactive: -19.3%
44 | COc1ccccc1CNC(=O)CN1C(=O)CCn2nc(-c3ccccc3)cc21 |  | inactive: 1.45% [at 57.1 µM]
45 | O=C(O)C1Nc2c(C(F)(F)F)ccc(Cl)c2C2C=CCC12 (stereo not given) | inconclusive: 50.1 µM [inhibitor, partial curve] | 
46 | O=C(CSc1nnc(-c2ccco2)c(-c2ccco2)n1)Nc1ccccc1 | active: 20 µM | 
47 | COC(=O)c1[nH]c(C)c(/C(O)=C2\C(=O)C(=O)N(CCCN3CCOCC3)C2c2ccccn2)c1C (stereo not given) | active: 50.1 µM | 
48 | COc1ccccc1C1CCN(C(=O)c2ccco2)CC1 |  | inactive: -16.7%

Row | SMILES | Potency | activity change, negative = inhibition
49 | N#Cc1c(Nc2cccc(F)c2)sc(C(=O)c2ccc(Cl)cc2)c1N | inconclusive: 56.2 µM [inhibitor, partial curve] | 
50 | C/C(CC(=O)NC(C)(C)C)=N\NC(=O)c1ccccc1N |  | inactive: -20.3%
51 | O=C(CN1C(=O)S/C(=C\c2ccccc2)C1=O)Nc1cc([N+](=O)[O-])ccc1O | inconclusive: 44.7 µM [inhibitor, partial curve] | 
52 | COc1ccc(C)cc1Nc1n[n+](-c2ccccc2)c(-c2cc([N+](=O)[O-])cc(OC)c2O)s1 | inconclusive: 70.8 µM [inhibitor, single point] | 
53 | O=C(NCc1ccccc1)c1ccc(CS(=O)Cc2ccc(Cl)cc2)o1 (stereo not given) |  | inactive: 16.2%
54 | Fc1ccc(/C=N/n2c(COc3ccccc3)n[nH]c2=S)cc1 | inconclusive: 39.8 µM [inhibitor, full curve] | 
55 | CCCCN(CCCNC(=O)CN1C(=O)COc2ccccc21)c1ccccc1 | inconclusive: 50.1 µM [inhibitor, partial curve] | 
56 | COc1ccccc1NC(=O)Cn1nc(-c2ccncc2)nc1SCC(=O)NC1CCCC1 | inconclusive: 89.1 µM [inhibitor, single point] | 
57 | COc1ccc(NS(=O)(=O)c2cccc(C(=O)NCC(c3ccc(OC)cc3)N3CCCC3)c2)cc1 (stereo not given) | inconclusive: 89.1 µM [inhibitor, single point] | 
58 | O=C(Nc1nnc(C2CC2)s1)c1ccccn1 | active: 5.62 µM | 
59 | CCCCCCSC1=C(C#N)C(c2ccc(C)o2)CC(=O)N1 (stereo not given) | inconclusive: 79.4 µM [inhibitor, single point] | 
60 | CSc1nc(-c2ccc(Cl)cc2)c(C#N)c(=O)n1C |  | inactive: -32.4%
61 | O=C(NNC(=O)C1CCN(S(=O)(=O)c2ccc(Cl)cc2)CC1)c1ccncc1 | inconclusive: 100 µM [inhibitor, partial curve] | 
62 | COc1cccc(CNC(=O)CN2C(=O)COc3ccc(S(=O)(=O)N4CCCCCC4)cc32)c1 | inactive | 
63 | C/C=C/C(=O)N1CC2(CC(c3cccc(NC(=O)CC(c4ccccc4)c4ccccc4)c3)=NO2)C[C@H]1C(N)=O (stereo not given in full) | inconclusive: 56.2 µM [inhibitor, partial curve, poor fit] | 
64 | O=C(O)CCc1ccc(-c2cccs2)n1Cc1ccco1 | active: 50.1 µM | 
65 | CN(CC(=O)Nc1c(Cl)cccc1Cl)C(=O)c1cccc(-n2cccc2)c1 | active: 35.5 µM | 
66 | Cc1cc(C)nc(NC(=O)c2ccc(Cl)cc2)n1 | inconclusive: 39.8 µM [inhibitor, partial curve, poor fit] | 
67 | O=C1c2ccccc2C(Nc2ccc3c(c2)OCO3)N1Cc1ccco1 (stereo not given) | active: 44.7 µM | 
68 | CCOc1ccc(NC(=O)Cn2c(=O)n(Cc3ccc(C(=O)NCc4ccc(C)cc4)cc3)c(=O)c3ccccc32)cc1 | inconclusive: 89.1 µM [inhibitor, single point] | 
69 | Cc1cc(N2CCN(C)CC2)ccc1NC(=O)c1c2c(nc3ccccc13)CCN(Cc1ccccc1)C2 | inconclusive: 35.5 µM [inhibitor, partial curve] | 
70 | O=C(Nc1nnc(C2=COCCO2)o1)c1ccc([N+](=O)[O-])cc1 | active: 35.5 µM | 

From PubChem BioAssay AID504333 (National Center for Advancing Translational Sciences (NCATS), 2011)
